In ChEMBL document CHEMBL4888484, “Replenishing the malaria drug discovery pipeline: Screening and hit evaluation of the MMV Hit Generation Library 1 (HGL1) against asexual blood stage Plasmodium falciparum ,using a nano luciferase reporter read-out” (2022):
The whole screen tested about 150,000 compounds, of which about 540 (0.36%) showed an effect of 50% or more. This is one part of the list.

What follows are compounds tested on Plasmodium falciparum (assay: Primary screen in NF54 nanoGlo assay, in single point, at 2uM, 72h; a lower Z score goes with more inhibition). Settings: timepoint 72 hour.
Format: functional, Erythrocyte
For `FC(F)n1ccnc1CN1CCN([C@H]2CCCCc3ccccc32)CC1`, the “% Inhibition” value was 6% and the Z score was -0.74.
In the case of `O=C(O)[C@H](Cc1ccccn1)c1ccc(Cl)cc1`, the “% Inhibition” value is reported as -1% and the Z score is reported as 0.17.
With `Cc1ccc(Cl)cc1S(=O)(=O)N1CCC[C@H](c2ccn(C)n2)C1` the “% Inhibition” value was -1% and the Z score was 0.15.
`COc1cc(C(=O)N2CCC[C@@H](N)C2)cc(Cl)c1OCCC(C)C` was tested, and the “% Inhibition” value was -9% and the Z score was 1.45.
With `CCCc1cc(NCc2cnn(C)c2)n2ncnc2n1` the “% Inhibition” value was 0% and the Z score was -0.06.
`CC(C)n1ncc2c1[C@@H](NCc1cccnc1N(C)C)CCC2` was tested, and the “% Inhibition” value was -9% and the Z score was 1.11.
With `CC1CN(C)CCC1N(C)C(=O)CCOCC(F)(F)F` (stereo not given) the “% Inhibition” value was -5% and the Z score was 0.62.
`COc1ccc(NC(=O)CC[C@@H]2CN(Cc3ccccc3)CC[C@@H]2N2CCOCC2)cc1` was tested, and the “% Inhibition” value was -3% and the Z score was 0.66.
With `C[C@@H](Cn1cncn1)Nc1nccn(C)c1=O` the “% Inhibition” value was -13% and the Z score was 1.16.
For `COc1cc(CN2C[C@@H](CO)[C@H](NC(=O)c3ccncc3)C2)ccc1F`, the “% Inhibition” value was -7% and the Z score was 1.2.
In the case of `CN1CCOC(CNCC(O)c2ccccc2Cl)C1` (stereo not given), the “% Inhibition” value is reported as 2% and the Z score is reported as -0.32.
With `N#CCn1ccc(NC(=O)N2C3CCC2CC2(CC2)C3)n1` the “% Inhibition” value was -4% and the Z score was 0.64.
`O=C(NC[C@]12C[C@H]1COC21CCC1)c1ncoc1-c1ccon1` was tested, and the “% Inhibition” value was 5% and the Z score was -0.99.
With `COc1ccccc1NC(=O)N1CC(c2nc(-c3ncccn3)no2)C1` the “% Inhibition” value was 4% and the Z score was -0.71.
For `CCOC(=O)c1cc(-c2cccc(NC(=O)c3cc(C)nn3C)c2)n(-c2cccc(C)c2)n1`, the “% Inhibition” value was -1% and the Z score was 0.15.
For `Cc1cc(CN(C)c2ncncc2Br)no1`, the “% Inhibition” value was -6% and the Z score was 0.73.
For `CCOC(=O)N1CCN(C(=O)[C@H]2CCCN(c3nc(C)cc(C)n3)C2)CC1`, the “% Inhibition” value was -3% and the Z score was 0.36.
With `Cc1nc(-c2cnn(C)c2)sc1C(=O)N[C@@H](C)COCC(C)C` the “% Inhibition” value was -9% and the Z score was 1.28.
For `CCc1cc(-c2cccc(-c3ccn(CCO)n3)c2)nc(N(C)C)n1`, the “% Inhibition” value was -10% and the Z score was 1.37.
`COCCCNC(=O)CN(C)c1nc2c(s1)c(C)nn2-c1ccc(OC)cc1` was tested, and the “% Inhibition” value was -2% and the Z score was 0.29.
`Cc1cc(-c2nc(C3CCOCC3C)no2)n[nH]1` (stereo not given) was tested, and the “% Inhibition” value was -3% and the Z score was 0.54.
In the case of `CCOc1ccccc1N(CC(=O)Nc1ccc(S(=O)(=O)Nc2cccc(Cl)c2Cl)cc1)S(=O)(=O)c1ccc(C)cc1`, the “% Inhibition” value is reported as -16% and the Z score is reported as 1.99.
For `O=C(Nc1ccnn1C1CCS(=O)(=O)C1)C1CC=CCC1` (stereo not given), the “% Inhibition” value was -11% and the Z score was 1.12.
`N#Cc1ccccc1OCCOCc1ncc[nH]1` was tested, and the “% Inhibition” value was -13% and the Z score was 1.41.
For `CNC(=O)[C@H]1CCCN(C(=O)Cc2ccc(S(N)(=O)=O)s2)C1`, the “% Inhibition” value was -6% and the Z score was 1.09.
In the case of `CCn1nc(C)nc1NC(=O)CC1CC2CCC1C2` (stereo not given), the “% Inhibition” value is reported as 2% and the Z score is reported as -0.45.
For `CC1=C(C)C[C@@H](C(=O)N(C)CCN(C)C(=O)c2ccc3[nH]c(=O)[nH]c3n2)CC1`, the “% Inhibition” value was 19% and the Z score was -2.47.
`CC1CC(C(=O)NCc2ncc[nH]2)CO1` (stereo not given) was tested, and the “% Inhibition” value was -2% and the Z score was 0.22.
With `CN(C)[C@H]1CN(Cc2ccccc2C(=O)O)C[C@@H]1C1CC1` the “% Inhibition” value was 1% and the Z score was -0.14.
In the case of `CCCC1(CN[C@@H](CC)CO)CCN(C(=O)OC(C)(C)C)CC1`, the “% Inhibition” value is reported as -17% and the Z score is reported as 1.96.
With `O=C(CCC(=O)N1Cc2ccccc2Oc2ncccc21)Nc1c(F)c(F)c(F)c(F)c1F` the “% Inhibition” value was -2% and the Z score was 0.21.
`C[C@H]1COCCN1C(=O)NC1CCCCC1` was tested, and the “% Inhibition” value was -2% and the Z score was 0.33.
In the case of `C[C@@H]1CN(C(=O)c2cccc(OC(F)F)c2)C[C@H](C)N1C`, the “% Inhibition” value is reported as -16% and the Z score is reported as 3.12.
For `Cc1ccccc1N1C[C@@H](C(=O)Nc2ccc3ccccc3c2)CC1=O`, the “% Inhibition” value was 4% and the Z score was -0.59.
`CC(=O)N1CCN(C(=O)c2cccc(-c3ccco3)c2)C[C@@H](O)C1` was tested, and the “% Inhibition” value was -2% and the Z score was 0.31.
`CC(C)(C)OC(=O)N1CCCC(NC2CCCC3OCCC23)CC1` (stereo not given) was tested, and the “% Inhibition” value was -7% and the Z score was 0.76.
With `CC1CCC2(CC1)OC[C@H](CNC(=O)NCC(F)F)O2` (stereo not given in full) the “% Inhibition” value was -2% and the Z score was 0.22.
With `CC(C)COCn1cc(Br)c(=O)[nH]c1=O` the “% Inhibition” value was 35% and the Z score was -5.09.
With `Cc1cc(NC(=O)CCN2CCn3c(nnc3C(F)(F)F)C2)no1` the “% Inhibition” value was -13% and the Z score was 1.29.
`O=C(COc1ccc(F)cc1)Nc1nnc(-c2ccc3c(c2)OCO3)o1` was tested, and the “% Inhibition” value was -6% and the Z score was 1.11.
`CC[C@H](C)c1ccc(/N=C(\NCc2ccncc2)NC(=O)c2cccc(Cl)c2)cc1` was tested, and the “% Inhibition” value was -12% and the Z score was 2.11.
With `CC[C@H](C)NC(=O)C(=O)Nc1ccc(C)cc1C` the “% Inhibition” value was -8% and the Z score was 1.02.
For `CCc1oc(C(=O)N[C@H]2CCCCNC2=O)cc1CN1CCCC1`, the “% Inhibition” value was -9% and the Z score was 1.26.
For `CCOC(=O)c1sc(NC2CCCC2)nc1C(F)(F)F`, the “% Inhibition” value was -47% and the Z score was 5.51.
In the case of `CCCN(CC(=O)OC(C)(C)C)C(=O)[C@@H]1CCCCN1S(=O)(=O)CCC`, the “% Inhibition” value is reported as -15% and the Z score is reported as 1.58.
For `O=C(Nc1cccnc1C(F)(F)F)c1ccnn1CC1CCC1`, the “% Inhibition” value was -9% and the Z score was 1.56.
In the case of `COCCS(=O)(=O)Nc1ncc(C(C)C)s1`, the “% Inhibition” value is reported as 2% and the Z score is reported as -0.24.
For `Cn1cc([C@@H]2CCCN2c2ncnc3c2cnn3C)cn1`, the “% Inhibition” value was -8% and the Z score was 1.27.
`CCc1ccc(CNC(=O)c2ccc3nc(C4CCCCC4)oc3c2)nc1` was tested, and the “% Inhibition” value was -6% and the Z score was 0.86.
`Clc1ccc([C@H](c2ccccc2)n2ccnc2-c2c[nH]cn2)cc1` was tested, and the “% Inhibition” value was -18% and the Z score was 1.94.
In the case of `O=C(N[C@H](c1ccccc1)c1nc2ccccc2[nH]1)c1ccco1`, the “% Inhibition” value is reported as 6% and the Z score is reported as -0.87.
With `COc1nc(CNC(=O)C(C)C)nc(N2CCOCC2)n1` the “% Inhibition” value was -5% and the Z score was 0.59.
`CC(C)(C)c1nccc(N2CCc3nc(N)sc3C2)n1` was tested, and the “% Inhibition” value was -13% and the Z score was 1.73.
`CCNS(=O)(=O)c1cc(-c2nc(C)c(C(=O)N3CCCCC3)s2)cs1` was tested, and the “% Inhibition” value was 2% and the Z score was -0.32.
With `CCC(C)NC(=O)C1COC2(CCN(C(=O)CC(C)(C)C)CC2)N1C(=O)c1ccccc1` (stereo not given) the “% Inhibition” value was -9% and the Z score was 1.33.
